# ± gives the standard deviation of the averaged measurements. Some of the results follow.
# System: PfAP2-LT AP2 domain (GST-tagged)
# Assay: gcPBM binding intensity (ln(normalized median fluorescence intensity)); higher = stronger DNA binding
# Outline: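 An Agilent 4 × 180k array carrying primer-extended double-stranded 36-bp intergenic genomic probes and negative controls received GST-tagged P. falciparum DNA-binding domains expressed in E. coli, about 25 μg on average, for 1 h. The binding buffer contained 1× PBS, 1% milk, 0.2 mg/ml BSA, 0.5% salmon testes DNA and 0.03% Triton X-100. Binding intensity is the top Masliner-normalised natural-log median intensity across replicate spots of either probe orientation, read after Alexa488 anti-GST antibody staining and a 488 nm scan.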
row,Sequence,gcPBM binding intensity (ln)
1,TTTTGTTATTTTTCAGTGCAATATGATAATAATATA,8.45 ± 0.39
2,GAATCCTTAATATGAACACACAAATATATTACCCAT [CACACA_site186],9.05 ± 0.42
3,AGAATTTTATTATATTGTACTTTTTATAAACCTTGT [XGTACX_site7495],8.69 ± 0.53
4,TCTTTTTAACAAAAAAAAAAAAAAAAAAAAAAATTA [CACACA_negctrl_site1637],7.96 ± 0.43
5,TAGGAAAAAAATACAGTGCAATTTTTATATAAATAA [GTGCAC_site9979],8.6 ± 0.58
6,TTTTTTTTTTTTTTGTGTACTAATATTATAAATTTT [XGTACX_site4405],8.48 ± 0.51
7,TACATATTTTATAACTGTACTTTTTTATTATCCAAT [XGTACX_site5396],8.71 ± 0.47
8,TTTATATAAATCAAATGTACATATTCCAAATATATA [XGTACX_site8515],8.45 ± 0.34
9,TTTTTTTTTTCAAATACATGCATTTATGTATAATAC [TGCATGCA_site722],8.62 ± 0.49
10,ATATATTTTTAATTTGCATGTAGTAAAGCCTTAAAT [TGCATGCA_site593],8.53 ± 0.36
11,CATCAAGTGAATTGTTGTACTTTACATTGTTTTTAT [XGTACX_site7261],9.2 ± 0.5
12,TATAAATTTTGTTTAGCACACACACCGACATACATA [CACACA_site9033],9.46 ± 0.27
13,ATATATATATATATATGTACATACATACAATCATAT [XGTACX_site6410],9.71 ± 0.28
14,ATGTTGTACAGACACACACACAAAAAAAAAATAAAA [CACACA_site7184],9.46 ± 0.56
15,TATAATAGCTTCTTTACACACACCATTTTTTTTTTT [CACACA_site1456],9.21 ± 0.4
16,CTTACATATTACATATGTACATATACACCTTATGTC [XGTACX_site4679],9.19 ± 0.41
17,ATATATTTACTTAATACACACAAAAAAAAAAAAAAA [CACACA_site3657],8.62 ± 0.43
18,TTTAATTTTTATATAACACACATATTGGAATTATGT [CACACA_site734],8.94 ± 0.4
19,TTTTTTACATACAGAAATATATAATATAAAATAAAT [GTGCAC_negctrl_site278],8.35 ± 0.33
20,TTAAATGTGAAGTGAATACACACCTAATAAATATAA [CACACA_site3194],8.77 ± 0.35
21,TTATGTATTACCTGCCGTACTTCTAAAATAATTAAA [XGTACX_site1716],8.52 ± 0.46
22,TGTTACAAAAAATAATGTACTTAATATATATATATA [XGTACX_site1016],8.71 ± 0.33
23,TATCTTCATTTTTTTGGTACGCACGCAAATATGGCT [XGTACX_site3107],8.99 ± 0.46

row,Sequence,gcPBM binding intensity (ln)
1,ACTGTCATTTATTGTAGTACGTCAATTTATTACATT [XGTACX_site2749],9.21 ± 0.52
2,TATAATATGTTATATACACACATTATAAAATACACA [CACACA_site6742],9.04 ± 0.32
3,TAATAATAAATAAAATGTACATATGAACAAATAAGT [XGTACX_site6710],9.18 ± 0.43
4,AAAAAAAAAATTAATTGTACTAAAAAAATATTATAT [XGTACX_site8903],8.37 ± 0.45
5,TGAATATTCATGTGTGTGCGCATGTTGTTAGACCAT [GTGCAC_site9869],9.62 ± 0.46
6,TAAATACATTTATGTACACACACATAGATGTATATT [CACACA_site5618],9.22 ± 0.36
7,TGTTTTCTTGATTATTGTACTTTAATTAGTAATATG [XGTACX_site8674],8.77 ± 0.49
8,AAAAATATTATAAGCACACATATATATATATATATA [CACACA_site2458],9.73 ± 0.49
9,TACTAACTTTTTAAAAGTACAGAACCATAACCATAA [XGTACX_site7182],8.7 ± 0.29
10,GAATAATCTAGAAACACACAAACACGACAAAAGAAA [CACACA_site4135],9.3 ± 0.35
11,ATATATATATATATATGGTAAAGTAAAAGGAAATAC [XGTACX_negctrl_site45],9.25 ± 0.31
12,AGTCGAATGATGTACACACATACAAAACATTTATGC [CACACA_site4022],9.42 ± 0.51
13,AGTTTATATTATTAAAGTACATATATATATTCTTAA [XGTACX_site3164],8.49 ± 0.34
14,ATCATGTTATATATATGTACTAATAATATAATATAA [XGTACX_site1326],8.62 ± 0.46
15,GTTTAAAATCTTTGCACACATATAAATAAATATATT [CACACA_site2555],8.9 ± 0.41
16,AGTATATTAATATAATGTACAAACGTTTATTTTGTA [XGTACX_site5980],8.74 ± 0.45
17,AAATATCTACATATTTGTACATATTTATACATATTT [XGTACX_site6300],9.01 ± 0.42
18,GAAAAGTAGACAATATGTACATATAGTATTTATAAA [XGTACX_site878],9.04 ± 0.56
19,TATATATTATAAAAGAGTACAGAAAGAAAAAAAAAT [XGTACX_site8305],8.78 ± 0.5
20,ATATTCAATATATTATGTACACATATATGAGGATAT [XGTACX_site7019],8.89 ± 0.3
21,AAACTTTTTTTAAAAACACACATATATATTTATATA [CACACA_site4092],8.71 ± 0.33
22,ATAATGTTTCTTTCAACACACAAAAAATGAACCCAT [CACACA_site4947],8.93 ± 0.37
23,TATTTATAAAAAAAATGTACATTTATGTATAAGCTA [XGTACX_site3266],8.46 ± 0.4

row,Sequence,gcPBM binding intensity (ln)
1,TAAAAAAGTTATATTACACACTTTATTGGTTAACTT [CACACA_site653],8.79 ± 0.47
2,ACATATAAATTATATACACACAATAATATATATATA [CACACA_site1384],9.01 ± 0.39
3,TATATATAGAAACACACACACACATATATATATATA [CACACA_site4116],10.045 ± 0.0071
4,AAAATTTAATATAATGCACACATAAAAAAAAAATCA [CACACA_site7882],8.87 ± 0.42
5,AATATCAATATTATATGTACTTATAATTTCAATGTA [XGTACX_site2423],8.62 ± 0.48
6,TAAATTTATTAATCAAGTACAAAATAAATTTTTATA [XGTACX_site2745],8.25 ± 0.37
7,AAAAAAAAATATATATGTACATATGTATAATAAAAA [XGTACX_site2110],8.86 ± 0.49
8,ATAAAAATAAATAAATTATATAAATGTAATATGAAA [GTGCAC_negctrl_site663],8.59 ± 0.54
9,TTTAGAGAAGTCAAGTGTACATATAAAATAATTCAC [XGTACX_site4997],8.65 ± 0.35
10,TATTTATTTATATATGCATGCTAATAATTATAACAT [TGCATGCA_site988],8.81 ± 0.36
11,AATGAAGACTTTTTTACACACTTCATATATTATATA [CACACA_site2034],8.9 ± 0.39
12,ATATTATATAACTTTTGTACGAACTATTTTATATAT [XGTACX_site6],9.13 ± 0.5
13,ACCTATGTATATTATACACACTCCAAACTATTCTTT [CACACA_site6939],9.07 ± 0.46
14,TAAAGTGTCAAATTCACACACATATATATATATATA [CACACA_site1380],9.88 ± 0.12
15,TAAATTAGAATAAATACACACAAATTAGAATTCTAT [CACACA_site7781],8.89 ± 0.42
16,TTTTTTTTTGTTAGTTGTACGTTAAATGAATTTACT [XGTACX_site7675],8.67 ± 0.57
17,AATGATTTTAAAAAATGTACTTTATAAACAAAATTA [XGTACX_site3803],8.32 ± 0.44
18,GTATAATTGGAAATTACACACCTTATAATGTAACAT [CACACA_site6091],8.88 ± 0.36
19,CATGAATATTTTAATGTGCACATTTATCATTATATG,9.05 ± 0.47
20,ATATTTTCAGTTCTCCATTATGTTCCCATTATTTTT [CACACA_negctrl_site990],9.09 ± 0.43
21,CCAAACTAAATGTACACACATACATAAATATAAATA [CACACA_site1141],9.33 ± 0.48
22,ATGTAATAAATATACACACACAAATATATATATATA [CACACA_site2395],9.79 ± 0.26
23,TTTTTTTTTTAGAGTACACACTTTTTTACATTTATG [CACACA_site5990],8.77 ± 0.47

row,Sequence,gcPBM binding intensity (ln)
1,ATTACAAATATAATATGTACTTAAATATAATTAAAA [XGTACX_site7038],8.42 ± 0.4
2,TCTTGATCTTATATATATCTACAATATTTTATACAT [TGCATGCA_negctrl_site569],9.04 ± 0.42
3,ATTACTAAAACAAAATGTACATATGATTTAAGAAAA [XGTACX_site5992],8.64 ± 0.36
4,CAAAAAAAATTATACACACACACACCCATATATATA [CACACA_site1044],10.04 ± 0.099
5,TACTATATATTATATAGTACATAAGATATACAACAT [XGTACX_site2929],8.72 ± 0.31
6,AAGAAAATTAACCCATGTACTTATGTAGATAGCAAG [XGTACX_site1049],8.95 ± 0.47
7,CAATATTATAGATATACACACATAATGTGTAAAAAC [CACACA_site6631],9.25 ± 0.44
8,TAAAACTTAATATAAACACACAAAAATTAATAAATA [CACACA_site4370],8.74 ± 0.46
9,ATATATATATATATTGCACACATATAAATATATATA [CACACA_site8167],9 ± 0.34
10,GAAAAATTTAATTATTGTACGTTTCATCTATATTTA [XGTACX_site414],8.72 ± 0.43
11,TTTTTGTTTTTTTTGTGTACTTATCAAATATATATA [XGTACX_site7273],8.71 ± 0.44
12,AAAAAAATAAATAAATGTACACATATATATATATAT [XGTACX_site4350],9.54 ± 0.38
13,ATCATTTATATTTTATGTACATATATAATTATATTT [XGTACX_site2129],8.99 ± 0.44
14,AGTGAAATTTTAGTCACACAGTTTTATCTTTAAGAA [CACACA_site5202],8.5 ± 0.51
15,TTATGTCTAATGAAATGTACATGAATAAATTAAAGT [XGTACX_site8138],8.88 ± 0.49
16,TAGAGGAATATAATATGTACATAATATAATGTATAT [XGTACX_site2838],8.87 ± 0.51
17,AATTATATAAGCCACGCATGTGTGCATAAAAATACA [TGCATGCA_site114],9.07 ± 0.3
18,CACGTGAAAATACAAGCATGCAAGCTTTTTTTTTCT [TGCATGCA_site642],8.86 ± 0.22
19,AATTTTCAATAGTATACACACAATTCTATAAATATA [CACACA_site6650],8.64 ± 0.42
20,AATGAGAATTTTATTACACACTTTAATATATTTTCA [CACACA_site784],8.7 ± 0.44

# Source: the supplement of paper PMC11417369
